Source: PubChem BioAssay AID624171 (National Center for Advancing Translational Sciences (NCATS), 2012)
In all, about 410,000 compounds went through this assay and about 1,200 (0.29%) were called active. Inconclusive results, whose numbers are uncertain, are shown with a selection of clear calls. Calls follow the shape of the dose curve; as a rule, active = well fitted activation curve with a large enough effect; inconclusive = small, poorly fitted or top-dose-only effect; inactive = flat fitted curve, though single readings scatter. A potency beside an inconclusive call is a rough fit, not a confirmed value.
Potency is read from the fitted curve at half-maximal effect; tags tell the direction and shape of the fitted curve.

Assay: qHTS of Nrf2 Activators; also: nearly all actives have a fitted effect of over 65% in size
Details: AREc32 ARE-luciferase reporter (MCF7-derived line), luminescence, 24 h; series mostly up to 46.1 µM
How it was run: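 Cells of the AREc32 ARE-luciferase line are plated in OPTI-MEM containing 5% FBS and left overnight at 37 deg C. Compounds are pinned in, incubation continues 24 hr, and firefly luciferase signal is then measured.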
For COC(=O)c1ccccc1NC(=O)CSc1nc2ccsc2c(=O)n1CCC(C)C, the Potency was “inactive”.
In the case of O=C(Nc1cccc([N+](=O)[O-])c1)c1ccccc1, the Potency is reported as inconclusive: 22.4 µM [activator, partial curve, poor fit].
For [O-][n+]1onc2c1CCc1c-2nn(-c2ccccc2Cl)[n+]1[O-], the Potency was inconclusive: 1.26 µM [activator, full curve, poor fit].
In the case of CCOC(=O)c1c(S(=O)(=O)N2CCCC(C(=O)NCc3ccc(Cl)cc3)C2)c(C)n(C)c1C (stereo not drawn), the Potency is reported as “inactive”.
For Cc1ccccc1OCc1nc2ccccc2c(=O)n1/N=C/c1cccc([N+](=O)[O-])c1, the Potency was “inactive”.
In the case of O=C(Nc1cccn2ncnc12)c1ccccc1, the Potency is reported as inconclusive: 17.8 µM [activator, single point].
With COc1ccccc1/C=C1\CCCC2=C1Nc1nnnn1C2c1ccccc1OC (stereo not drawn) the Potency was inconclusive: 35.5 µM [activator, single point].
For C=C(C(=O)c1ccccc1)C(C)CC(=O)c1ccccc1 (stereo not drawn), the Potency was inconclusive: 3.16 µM [activator, partial curve, poor fit].
With COc1ccc(-c2nc3c4ccccc4ccn3c2Cc2cccc(Cl)c2)cc1OC the Potency was “inactive”.
For CCOc1ccc(N2C(=O)C3Sc4[nH]c(=O)sc4C(/C=C/c4ccccc4)C3C2=O)cc1 (stereo not drawn), the Potency was inconclusive: 25.1 µM [activator, single point].
In the case of O=c1c(Cl)c(Cl)cnn1Cc1ccc(F)cc1, the Potency is reported as inconclusive: 3.55 µM [activator, partial curve, poor fit].
For CN(C)c1ccc(C(=O)/C=C/c2cccnc2)cc1, the Potency was inconclusive: 10 µM [activator, partial curve].
In the case of O=C(O)c1ccc(N/N=C/C=C/c2ccc([N+](=O)[O-])o2)cc1, the Potency is reported as active: 14.1 µM.
With Cc1cc(NO)nc(-c2ccc(Br)cc2)n1 the Potency was inconclusive: 10 µM [activator, partial curve].
With COC/C=C/C1=CC(=O)C[C@H](c2ccc3c(c2)OCO3)C1 the Potency was inconclusive: 15.8 µM [activator, single point].
For Cc1ccc(-c2csc3ncnc(Cl)c23)cc1, the Potency was inconclusive: 31.6 µM [activator, single point].
In the case of Cc1noc(C)c1S(=O)(=O)N1CCC(C(=O)N2CCN(c3ccccc3)CC2)CC1, the Potency is reported as “inactive”.
In the case of FC(F)(F)Oc1ccccc1-c1nnc(-c2cccc(C(F)(F)F)c2)o1, the Potency is reported as inconclusive: 14.1 µM [activator, single point].
For COc1cc(OC)cc(C(=O)N2CCN(C3CCN(Cc4ccccc4)CC3)CC2)c1, the Potency was “inactive”.
With Cc1cccc(NC(=O)C2CCN(c3nnc(-n4c(C)ccc4C)s3)CC2)c1C the Potency was inconclusive: 17.8 µM [activator, single point].
For COc1cc(NC(=O)c2ccco2)c(C(=O)O)cc1OC, the Potency was “inactive”.
With N#Cc1c(NCCN)nc(NCc2ccccc2)c2c1CCN(Cc1ccccc1)C2 the Potency was “inactive”.
For CC(=O)Oc1ccccc1C(=O)C=Cc1cccc([N+](=O)[O-])c1, the Potency was inconclusive: 2.82 µM [activator, partial curve, poor fit].
With FC(F)(F)c1cc(-c2ccco2)nc(N2CCN(c3ccccc3)CC2)n1 the Potency was inconclusive: 3.55 µM [activator, single point].
For Cc1cccc2nc(COc3ccc4ccccc4c3Br)cn12, the Potency was inconclusive: 2.51 µM [activator, partial curve, poor fit].
With CC1CCN(C(=O)CSc2nnc(-c3ccccc3Cl)o2)CC1 the Potency was inconclusive: 22.4 µM [activator, partial curve, poor fit].
With CCOc1cc(C(=O)CSc2nnc(CNc3ccc(Cl)cc3)o2)ccc1NC(=O)CC the Potency was “inactive”.
In the case of O=C(/C=C/c1ccc(S(=O)(=O)N2CCOCC2)cc1)NC(=S)Nc1ccc(Cl)cc1Cl, the Potency is reported as inconclusive: 17.8 µM [activator, single point].
With Cc1ccc(NC(=O)COc2ccccc2[N+](=O)[O-])nc1 the Potency was inconclusive: 14.1 µM [activator, partial curve, poor fit].
For Cc1[nH]n(-c2ccccc2)c(=O)c1/C=N/N(c1ccccc1)c1ccccc1, the Potency was “inactive”.
With O=C(COC(=O)c1cc([N+](=O)[O-])ccc1N1CCOCC1)c1ccccc1Cl the Potency was inconclusive: 17.8 µM [activator, single point].
With N/C(=N\NC(=O)c1ccc(F)cc1)c1cc2ccccc2oc1=O the Potency was inconclusive: 14.1 µM [activator, single point].
In the case of O=[N+]([O-])c1ccc(N2CCN(CCOc3nonc3-c3ccccc3)CC2)c(Cl)c1, the Potency is reported as “inactive”.
In the case of CCOc1ccc2oc(C(=O)Nc3ccc(C)cn3)c(C)c2c1, the Potency is reported as “inactive”.
In the case of COc1ccc2[nH]c(=O)c(CNc3ccc(C)c(C)c3)cc2c1, the Potency is reported as inconclusive: 11.2 µM [activator, partial curve, poor fit].
In the case of Cc1cccc(Sc2c([N+](=O)[O-])ncn2C)c1, the Potency is reported as inconclusive: 20 µM [activator, single point].
With CCC(C)(C)n1nnnc1C(c1cc2ccc(OC)cc2[nH]c1=O)N1CCCCC1 (stereo not drawn) the Potency was “inactive”.
For O=C(/C=C/c1ccco1)NCC(=O)N/N=C/c1ccc([N+](=O)[O-])cc1, the Potency was inconclusive: 14.1 µM [activator, partial curve, poor fit].
With Cn1c(=O)c2c(ncn2CC(=O)N/N=C/C=C/c2ccco2)n(C)c1=O the Potency was inconclusive: 11.2 µM [activator, partial curve].
With Nc1c(Cl)nc(-c2ccccc2)nc1Cl the Potency was inconclusive: 5.62 µM [activator, single point].
With CC1=C(C)/C(=N/OC(=O)c2cccc([N+](=O)[O-])c2)C=CC1=O the Potency was inconclusive: 35.5 µM [activator, partial curve, poor fit].
In the case of CCOC(=O)c1ccc(NC(=S)NNC(C)(C)C)cc1, the Potency is reported as inconclusive: 22.4 µM [activator, partial curve, poor fit].
With COc1cc(Br)cc(/C=C/c2ccc3cccc(O)c3n2)c1OC the Potency was inconclusive: 2.82 µM [activator, full curve, poor fit].
